The other results are listed elsewhere or left out.
test system: HepG2; assay: cytotoxicity call (relative viability < 0.9); conditions: 10 µM

Row | Structure (SMILES) | cytotoxicity call
1 | C[C@H](CO)N1C[C@H](C)[C@H](CN(C)C(=O)Nc2ccc3c(c2)OCO3)OCCCC[C@H](C)Oc2ccc(NC(=O)Nc3cccc4ccccc34)cc2C1=O | inactive
2 | C[C@H]1CN([C@@H](C)CO)C(=O)Cc2cc(NC(=O)CCN3CCOCC3)ccc2O[C@H]1CN(C)CC1CC1 | inactive
3 | COCC#Cc1ccc2c(c1)O[C@@H](CN(C)C(=O)COC)[C@H](C)CN([C@@H](C)CO)S2(=O)=O | inactive
4 | Cc1noc(C)c1S(=O)(=O)Nc1ccc2c(c1)C(=O)N([C@H](C)CO)C[C@@H](C)[C@@H](CN(C)S(=O)(=O)c1ccccc1)O2 | inactive
5 | COc1ccc(NC(=O)Nc2ccc3c(c2)C(=O)N([C@@H](C)CO)C[C@@H](C)[C@@H](CN(C)Cc2ccc(Cl)c(Cl)c2)OCCCC[C@H](C)O3)cc1 | inactive
6 | O=C(C[C@@H]1C[C@@H]2c3cc(NC(=O)Nc4ccccc4F)ccc3O[C@@H]2[C@@H](CO)O1)NCc1ccc(Oc2ccccc2)cc1 | active
7 | C[C@@H]1CCCCO[C@H](CN(C)C(=O)NC2CCCCC2)[C@@H](C)CN([C@@H](C)CO)C(=O)c2cc(NS(=O)(=O)c3cccs3)ccc2O1 | inactive
8 | C[C@H]1CN([C@@H](C)CO)C(=O)CCCn2nncc2CO[C@H]1CN(C)S(=O)(=O)c1ccc(Cl)cc1 | active
9 | O=C(C[C@@H]1CC[C@@H]2[C@H](COC[C@@H](O)CN2C(=O)c2cnccn2)O1)NCc1ccc(Oc2ccccc2)cc1 | inactive
10 | O=S(=O)(NCC[C@@H]1CC[C@@H](NS(=O)(=O)c2ccccc2Cl)[C@H](CO)O1)c1ccc(Cl)cc1 | inactive
11 | COc1ccc(CN(C)C[C@H]2OCCCC[C@@H](C)Oc3ccc(NC(=O)Nc4ccc(C(F)(F)F)cc4)cc3C(=O)N([C@@H](C)CO)C[C@H]2C)cc1 | active
12 | CO[C@H]1/C=C\O[C@@]2(C)Oc3c(C)c(O)c4c(O)c(c(/C=N/N=C/N5CCCCC5)c(O)c4c3C2=O)NC(=O)/C(C)=C\C=C/[C@H](C)[C@H](O)[C@@H](C)[C@@H](O)[C@@H](C)[C@H](OC(C)=O)[C@@H]1C | inactive
13 | CC1CC2C3CCC4=CC(=O)C=CC4(C)C3(F)C(O)CC2(C)C1(O)C(=O)COP(=O)([O-])[O-].[Na+].[Na+] (stereo unspecified) | inactive
14 | Cc1noc(C)c1NC(=O)N(C)C[C@@H]1Oc2ccc(NC(=O)Cn3cnnn3)cc2C(=O)N([C@@H](C)CO)C[C@@H]1C | inactive
15 | C[C@@H]1CN([C@@H](C)CO)C(=O)Cc2cc(NC(=O)c3ccncc3)ccc2O[C@@H]1CN(C)C(=O)Nc1ccc2c(c1)OCO2 | inactive
16 | CS(=O)(=O)N1CCN(C[C@@H](O)C2CC2)CC1 | inactive
17 | C[C@@H]1CN([C@H](C)CO)C(=O)c2c(c3ccccc3n2C)-c2ccccc2CO[C@@H]1CN(C)Cc1ccc(C(=O)O)cc1 | inactive
18 | COc1cccc(NC(=O)N(C)C[C@H]2Oc3cc(C#CC4(O)CCCC4)ccc3S(=O)(=O)N([C@H](C)CO)C[C@@H]2C)c1 | inactive
19 | C[C@H]1CN([C@@H](C)CO)C(=O)c2cc(NC(=O)CCCN(C)C)ccc2O[C@H]1CN(C)C(=O)NC1CCCCC1 | inactive
20 | C[C@H]1CN([C@@H](C)CO)C(=O)Cc2cc(NC(=O)Nc3cccc4ccccc34)ccc2O[C@H]1CN(C)S(=O)(=O)c1cccs1 | inactive
21 | Cc1ccc(S(=O)(=O)N(C)C[C@H]2OCCCC[C@@H](C)Oc3ccc(NC(=O)Cc4ccccc4)cc3C(=O)N([C@H](C)CO)C[C@@H]2C)cc1 | inactive
22 | Cc1cc(C(=O)O)c(C#N)c(N)n1 | inactive
23 | COc1ccc(S(=O)(=O)N(C)C[C@H]2Oc3cc(C#CC4CCCC4)ccc3S(=O)(=O)N([C@H](C)CO)C[C@H]2C)cc1 | inactive
24 | C[C@H](CO)N1C[C@H](C)[C@@H](CN(C)C(=O)C2CCCCC2)OCCCC[C@H](C)Oc2ccc(NC(=O)c3ccccc3)cc2C1=O | inactive
25 | CN1CC2(CCNCC2)OC1=O | inactive
26 | C[C@@H]1CN([C@@H](C)CO)C(=O)c2cc(/C=C/c3ccccc3)cnc2O[C@H]1CN(C)C(=O)Nc1ccc(C(F)(F)F)cc1 | inactive
27 | COCCOC(=O)N1C(=O)[C@@]2(c3cc(C#Cc4ccc(OC)cc4)ccc31)[C@H](C(=O)NC[C@H](O)c1ccccc1)[C@H]1C(=O)O[C@H](c3ccccc3)[C@H](c3ccccc3)N1[C@@H]2c1ccc(O)cc1 | inactive
28 | C[C@@H]1CN([C@H](C)CO)C(=O)c2cccc(NC(=O)Nc3ccc(C(F)(F)F)cc3)c2O[C@@H]1CN(C)C(=O)Nc1cccc2ccccc12 | inactive
29 | NS(=O)(=O)c1cc2c(cc1Cl)NCNS2(=O)=O | inactive

test system: S. aureus RN4220; assay: growth inhibition call (relative growth <= 0.2); conditions: 50 µM

Row | Structure (SMILES) | growth inhibition call
30 | Cc1cccc(S(=O)(=O)N2C[C@H](O)COC[C@@H]3O[C@@H](CC(=O)NCc4ccncn4)CC[C@H]32)c1 | inactive
31 | Nc1nnnn1/N=C\c1ccc(O)cc1 | inactive
32 | C[C@@H]1CN([C@H](C)CO)C(=O)Cc2cc(NC(=O)C3CCCCC3)ccc2O[C@H]1CN(C)C(=O)Nc1cccc2ccccc12 | inactive
33 | NCC[C@H]1CC[C@H](NC(=O)C2CC2)[C@H](CO)O1 | inactive
34 | C[C@H]1CCCCO[C@H](CN(C)S(=O)(=O)c2ccc(F)cc2)[C@@H](C)CN([C@@H](C)CO)C(=O)c2cc(NC(=O)Nc3ccc(C(F)(F)F)cc3)ccc2O1 | inactive
35 | C[C@H]1CCCCO[C@@H](CN(C)C(=O)Nc2ccccc2)[C@@H](C)CN([C@@H](C)CO)C(=O)c2cc(NC(=O)C3CCCCC3)ccc2O1 | inactive
36 | C[C@@H]1CCCCO[C@H](CN(C)C(=O)Nc2ccc(F)cc2)[C@@H](C)CN([C@H](C)CO)C(=O)c2cc(NC(=O)NC3CCCCC3)ccc2O1 | inactive
37 | COCC(=O)N1C[C@H](C)[C@H](OC)CN(C)C(=O)c2cc(NC(=O)Nc3ccccc3)ccc2OC[C@H]1C | inactive
38 | CN1C(=O)c2cc(NC(=O)C3CCOCC3)ccc2OC[C@@H]2O[C@H](CC(=O)NCc3ccc4c(c3)OCO4)CC[C@@H]21 | inactive
39 | COc1ccccc1S(=O)(=O)N(C)C[C@H]1Oc2cc(C#CCC(C)C)ccc2S(=O)(=O)N([C@@H](C)CO)C[C@H]1C | inactive
40 | C[C@@H]1CN([C@@H](C)CO)C(=O)c2ccccc2-c2ccccc2CO[C@H]1CN(C)C(=O)Nc1cccc(C(F)(F)F)c1 | inactive
41 | C[C@H](CO)N1C[C@H](C)[C@H](CN(C)C(=O)Nc2ccc3c(c2)OCO3)OCCCC[C@H](C)Oc2ccc(NC(=O)Nc3cccc4ccccc34)cc2C1=O | inactive
42 | C[C@H]1CN([C@@H](C)CO)C(=O)Cc2cc(NC(=O)CCN3CCOCC3)ccc2O[C@H]1CN(C)CC1CC1 | inactive
43 | COCC#Cc1ccc2c(c1)O[C@@H](CN(C)C(=O)COC)[C@H](C)CN([C@@H](C)CO)S2(=O)=O | inactive
44 | Cc1noc(C)c1S(=O)(=O)Nc1ccc2c(c1)C(=O)N([C@H](C)CO)C[C@@H](C)[C@@H](CN(C)S(=O)(=O)c1ccccc1)O2 | inactive
45 | COc1ccc(NC(=O)Nc2ccc3c(c2)C(=O)N([C@@H](C)CO)C[C@@H](C)[C@@H](CN(C)Cc2ccc(Cl)c(Cl)c2)OCCCC[C@H](C)O3)cc1 | inactive

Row | Structure (SMILES) | growth inhibition call
46 | O=C(C[C@@H]1C[C@@H]2c3cc(NC(=O)Nc4ccccc4F)ccc3O[C@@H]2[C@@H](CO)O1)NCc1ccc(Oc2ccccc2)cc1 | inactive
47 | C[C@@H]1CCCCO[C@H](CN(C)C(=O)NC2CCCCC2)[C@@H](C)CN([C@@H](C)CO)C(=O)c2cc(NS(=O)(=O)c3cccs3)ccc2O1 | inactive
48 | C[C@H]1CN([C@@H](C)CO)C(=O)CCCn2nncc2CO[C@H]1CN(C)S(=O)(=O)c1ccc(Cl)cc1 | inactive
49 | O=C(C[C@@H]1CC[C@@H]2[C@H](COC[C@@H](O)CN2C(=O)c2cnccn2)O1)NCc1ccc(Oc2ccccc2)cc1 | inactive
50 | O=S(=O)(NCC[C@@H]1CC[C@@H](NS(=O)(=O)c2ccccc2Cl)[C@H](CO)O1)c1ccc(Cl)cc1 | inactive
51 | COc1ccc(CN(C)C[C@H]2OCCCC[C@@H](C)Oc3ccc(NC(=O)Nc4ccc(C(F)(F)F)cc4)cc3C(=O)N([C@@H](C)CO)C[C@H]2C)cc1 | inactive
52 | CO[C@H]1/C=C\O[C@@]2(C)Oc3c(C)c(O)c4c(O)c(c(/C=N/N=C/N5CCCCC5)c(O)c4c3C2=O)NC(=O)/C(C)=C\C=C/[C@H](C)[C@H](O)[C@@H](C)[C@@H](O)[C@@H](C)[C@H](OC(C)=O)[C@@H]1C | active
53 | CC1CC2C3CCC4=CC(=O)C=CC4(C)C3(F)C(O)CC2(C)C1(O)C(=O)COP(=O)([O-])[O-].[Na+].[Na+] (stereo unspecified) | inactive
54 | Cc1noc(C)c1NC(=O)N(C)C[C@@H]1Oc2ccc(NC(=O)Cn3cnnn3)cc2C(=O)N([C@@H](C)CO)C[C@@H]1C | inactive
55 | C[C@@H]1CN([C@@H](C)CO)C(=O)Cc2cc(NC(=O)c3ccncc3)ccc2O[C@@H]1CN(C)C(=O)Nc1ccc2c(c1)OCO2 | inactive
56 | CS(=O)(=O)N1CCN(C[C@@H](O)C2CC2)CC1 | inactive
57 | C[C@@H]1CN([C@H](C)CO)C(=O)c2c(c3ccccc3n2C)-c2ccccc2CO[C@@H]1CN(C)Cc1ccc(C(=O)O)cc1 | inactive
58 | COc1cccc(NC(=O)N(C)C[C@H]2Oc3cc(C#CC4(O)CCCC4)ccc3S(=O)(=O)N([C@H](C)CO)C[C@@H]2C)c1 | inactive
59 | C[C@H]1CN([C@@H](C)CO)C(=O)c2cc(NC(=O)CCCN(C)C)ccc2O[C@H]1CN(C)C(=O)NC1CCCCC1 | inactive
60 | C[C@H]1CN([C@@H](C)CO)C(=O)Cc2cc(NC(=O)Nc3cccc4ccccc34)ccc2O[C@H]1CN(C)S(=O)(=O)c1cccs1 | inactive
61 | Cc1ccc(S(=O)(=O)N(C)C[C@H]2OCCCC[C@@H](C)Oc3ccc(NC(=O)Cc4ccccc4)cc3C(=O)N([C@H](C)CO)C[C@@H]2C)cc1 | inactive

Reference: the antibiotic and cytotoxicity screens of Wong et al. (2023)
